40 sequences from the supplement of paper PMC7826260 can be followed below.

The list shows a part of the results. The data describe in vitro nicking of single-stranded DNA by Rep domains for 1 h at 37 °C with 3 µM enzyme; only the middle of the 90-letter strands is printed. A value is the log2 ratio of uncut reads to the pool without enzyme; strong cutting gives strongly negative numbers. There is no active / inactive call. Because reads are shares of a total, they shift together; where an enzyme cuts many sequences, the uncut ones exceed 0.

In the test the test system is T1, Rep nickase domain of porcine circovirus 2.
T1 sequence (residues 2-116 of Rep, tag left off): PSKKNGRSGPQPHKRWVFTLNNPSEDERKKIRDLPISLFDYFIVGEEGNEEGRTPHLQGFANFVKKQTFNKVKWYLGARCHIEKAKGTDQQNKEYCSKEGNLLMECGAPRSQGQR
Put plainly: uncleaved DNA left, log2 of reads against the no-enzyme library (log2 ratio); higher = less cleavage (more negative = more Rep cleavage of the k-mer); sequences stand for … in CTCGTCCG…ACCGGAGA
The protocol:
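A pool of 90-nt single-stranded DNAs with seven random bases just before the constant AC of the nick site (name = the seven bases) was cut by 3 µM recombinant His6-SUMO-tagged Rep nickase domain (300 nM DNA, 50 mM HEPES pH 8.0, 50 mM NaCl, 1 mM MnCl2, 1 h, 37 °C, three replicates). Uncut DNA was amplified and sequenced.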
As for GCCGAGC, the “uncleaved DNA left (log2)” value amounted to 0.104.

With GGCAAGC, the “uncleaved DNA left (log2)” value amounted to 0.196.

For the sequence AGGTTTT, the “uncleaved DNA left (log2)” value was -3.45.

In the case of TTGGGAC, the “uncleaved DNA left (log2)” value stood at 0.182.

On to CCGGCAT, for which the “uncleaved DNA left (log2)” value came to 0.052.

With TTAAGAT, the “uncleaved DNA left (log2)” value is -0.033.

Take CACTGGC: the “uncleaved DNA left (log2)” value was 0.0688.

Regarding ATCCGAC, the “uncleaved DNA left (log2)” value is -0.0374.

CTCTCCA: the “uncleaved DNA left (log2)” value was -0.104.

As to CGTGTAC, the “uncleaved DNA left (log2)” value turned out to be 0.0278.

Regarding TACCTAG, the “uncleaved DNA left (log2)” value is -0.512.

As for CCTACGG, the “uncleaved DNA left (log2)” value was found to be 0.0515.

For the sequence AAACGGC, the “uncleaved DNA left (log2)” value amounted to 0.064.

On to CCGCTGG, for which the “uncleaved DNA left (log2)” value came to 0.0722.

Consider CCTCTGC, for which the “uncleaved DNA left (log2)” value is -0.1.

Consider GGGTATC, for which the “uncleaved DNA left (log2)” value amounted to 0.104.

In the case of ATAACAT, the “uncleaved DNA left (log2)” value was 0.136.

With CTCGTTA, the “uncleaved DNA left (log2)” value is -0.134.

For ATACGTC, the “uncleaved DNA left (log2)” value is -0.0144.

For the sequence TCCTCGG, the “uncleaved DNA left (log2)” value was determined as 0.0558.

For TCACAAA, the “uncleaved DNA left (log2)” value was 0.197.

Regarding CGTGCAA, the “uncleaved DNA left (log2)” value was -0.187.

With GTAATGC, the “uncleaved DNA left (log2)” value is 0.173.

As for TCGACGC, the “uncleaved DNA left (log2)” value was 0.013.

For CATGGCG, the “uncleaved DNA left (log2)” value is 0.123.

On to TGCATAC, for which the “uncleaved DNA left (log2)” value came out at 0.144.

For the sequence GCCCAAC, the “uncleaved DNA left (log2)” value was 0.032.

As to GATACAG, the “uncleaved DNA left (log2)” value stood at 0.209.

On to CCAGTAT, for which the “uncleaved DNA left (log2)” value came to 0.0113.

For GACGCTT, the “uncleaved DNA left (log2)” value is -0.3.

For the sequence TCTCGTG, the “uncleaved DNA left (log2)” value is -0.0115.

GAAGGCG: the “uncleaved DNA left (log2)” value was determined as 0.118.

As for AGGCTTA, the “uncleaved DNA left (log2)” value is -0.256.

Turning to CCTAATG, the “uncleaved DNA left (log2)” value was found to be 0.0614.

For ATGGAGG, the “uncleaved DNA left (log2)” value was found to be 0.145.

With TGGCTAG, the “uncleaved DNA left (log2)” value came to 0.235.

On to GGCGAAC, for which the “uncleaved DNA left (log2)” value is 0.103.

Take GTTCAGT: the “uncleaved DNA left (log2)” value worked out at 0.132.

On to TCGGTGC, for which the “uncleaved DNA left (log2)” value was found to be 0.0526.

On to CAGGAAT, for which the “uncleaved DNA left (log2)” value was found to be 0.173.
